Among all 390,000 compounds or so, about 2,200 (0.56%) were called active. This list was built around the results that the source calls inconclusive (neither active nor inactive); the mix of calls is not that of the screen. The call rests on the fitted dose curve; in most records, active means well fitted inhibition curve with a large enough effect; inconclusive means small, poorly fitted or top-dose-only effect; inactive means no such curve, though single readings can be large or run the other way. Potencies beside an inconclusive call are fits to weak or partial responses and may not hold up.
Biological target: Chromobox protein homolog 1 (Homo sapiens) (UniProt P83916)
Test: HTS for Inhibitors of HP1-beta Chromodomain Interactions with Methylated Histone Tails; further: nearly all actives have a fitted effect of over 70% in size
Details: AlphaScreen HP1-beta / biotin-H3K9me3 peptide binding; series mostly up to 114 µM; activity change, negative = inhibition: at the top concentration
In short: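 AlphaScreen: HP1-beta (50 nM) preformed 30 min with biotin-H3(1-18)K9me3 peptide (50 nM) in PBS pH 7.4, 0.01% Tween-20. Compound added for 30 min at RT, then streptavidin donor/nickel chelate acceptor beads (10 ug/mL) for 30 min.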
Potency means the concentration at half of the fitted maximal effect; tags describe the fitted curve by direction and shape.

Sequence of UniProt P83916 (P83916 whole entry, looked up): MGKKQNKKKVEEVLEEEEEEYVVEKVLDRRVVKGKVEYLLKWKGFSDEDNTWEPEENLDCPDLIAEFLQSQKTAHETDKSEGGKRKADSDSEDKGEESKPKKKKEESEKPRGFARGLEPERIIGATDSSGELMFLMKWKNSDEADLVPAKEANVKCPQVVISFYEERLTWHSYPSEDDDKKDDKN

| Structure (SMILES) | Potency | activity change, negative = inhibition |
| --- | --- | --- |
| CC1CCc2c(sc(NC(=O)CCC(=O)O)c2C(=O)NC2CC2)C1 (configuration not stated) | inconclusive: 8.91 µM [inhibitor, full curve] |  |
| Cc1ccc(NC(=O)c2cc(N3C(=O)C=CC3=O)ccc2Cl)cc1C | inconclusive: 15.8 µM [inhibitor, partial curve, poor fit] |  |
| O=C(COC(=O)C1CCN(S(=O)(=O)c2cc([N+](=O)[O-])ccc2Cl)CC1)Nc1ncc(Cl)cc1Cl | inconclusive: 44.7 µM [inhibitor, partial curve] |  |
| O=[N+]([O-])c1ccc(SCCc2ccncc2)cc1 | inconclusive: 35.5 µM [inhibitor, partial curve, poor fit] |  |
| O=C(CSc1cccc[n+]1[O-])Nc1ccccc1Oc1ccccc1 | inconclusive: 89.1 µM [inhibitor, single point] |  |
| S=C(c1c[nH]c2ccccc12)N1CCOCC1 | inconclusive: 31.6 µM [inhibitor, partial curve] |  |
| Oc1ccccc1/C=N/Nc1cc(N2CCCC2)nc(N2CCCC2)n1 | inconclusive: 39.8 µM [inhibitor, partial curve] |  |
| O=C(Nc1nc(-c2ccccc2)cs1)c1ccco1 |  | inactive: 25.7% |
| Cc1ccc2nc(SCC(=O)c3c(N)n(C4CC4)c(=O)[nH]c3=O)[nH]c2c1 | inconclusive: 89.1 µM [inhibitor, single point] |  |
| Cc1cc(/C=N/Nc2ccc([N+](=O)[O-])cn2)c(C)n1-c1cccc(C(=O)O)c1 | inconclusive: 50.1 µM [inhibitor, partial curve] |  |
| CC(SCc1cc(=O)n2c([nH]c3ccccc32)c1C#N)C(=O)O (configuration not stated) | inconclusive: 44.7 µM [inhibitor, partial curve] |  |
| CCOc1ccc2nc(NC(=S)NCc3ccccc3)sc2c1 | inconclusive: 50.1 µM [inhibitor, partial curve] |  |
| Cc1ccc(NC(=O)N2CC3CCCN3c3ccccc32)c(C)c1 (configuration not stated) | inconclusive: 35.5 µM [inhibitor, partial curve] |  |
| COc1ccc(-c2cc(C(=O)N3CCN(c4ccccc4O)CC3)c3ccccc3n2)cc1 |  | inactive: 13.8% |
| CC1CCCC(C)N1C(=O)Cn1cc(/C=C2/C(=O)Nc3ccccc32)c2ccccc21 (configuration not stated) | inconclusive: 17.8 µM [inhibitor, partial curve, poor fit] |  |
| Cc1cc(NS(=O)(=O)c2ccccc2)c(C)c(Cl)c1O | inconclusive: 56.2 µM [inhibitor, single point] |  |
| Cc1ccnc(Nc2nc(-c3c(C)nc4sccn34)cs2)c1 |  | inactive: -33.6% |
| COc1ccc(N2CCN(Cc3cccn3-c3nnc(N4CCN(C5CCCCC5)CC4)s3)CC2)cc1 | inconclusive: 50.1 µM [inhibitor, partial curve] |  |
| COc1cccc(-c2nc(N3CCCCC3C)c3ccccc3n2)c1O (configuration not stated) |  | inactive: -35.8% |
| CC1CCN(c2cc(N3CCN(C(=O)c4ccc(F)c(F)c4)CC3)c([N+](=O)[O-])cc2F)CC1 | inconclusive: 28.2 µM [inhibitor, partial curve, poor fit] |  |
| COc1ccc(Cl)cc1/C=C/c1ccc2cccc(O)c2n1 |  | inactive: 36.9% |
| CC(C)(C)NC(=O)C1CC(=O)N(CCc2ccc(F)cc2)C1 (configuration not stated) |  | inactive: 41.1% |
| O=C1[C@H]2[C@@H](c3ccc(F)cc3)N3C(=O)N(c4ccc(Br)cc4)C(=O)[C@@]3(Cc3ccc(Cl)cc3)[C@H]2C(=O)N1C1CCCCC1 |  | inactive: 22.9% |

| Structure (SMILES) | Potency | activity change, negative = inhibition |
| --- | --- | --- |
| COc1ccc(NC(=O)CCc2nnc3n(Cc4ccccc4Cl)c(=O)c4ccccc4n23)cc1 |  | inactive: 22.3% |
| CCNc1cc(N2CCN(C3CCCCC3)CC2)c2noc3c2c1C(=O)c1ccccc1-3 | inconclusive: 50.1 µM [inhibitor, partial curve] |  |
| CCOc1ccc(NC(=O)COC(=O)C23CC4CC(CC(C4)C2)C3)c([N+](=O)[O-])c1 | inconclusive: 31.6 µM [inhibitor, partial curve] |  |
| CCc1cccc(NC(=O)c2cccc(S(=O)(=O)N3CCN(C)CC3)c2)c1 | inconclusive: 89.1 µM [inhibitor, partial curve, poor fit] |  |
| O=[N+]([O-])c1cccc(/C=N/n2c(-c3cccnc3)n[nH]c2=S)c1 | inconclusive: 70.8 µM [inhibitor, partial curve] |  |
| Cc1ccccc1NC(=O)Cc1nnc(SCC(=O)NC2CCCC2)n1C |  | inactive: 2.72% |
| O=C(O)Cc1sc(Nc2ccccc2)nc1-c1ccccc1 |  | inactive: 12.6% |
| CC(=O)Nc1ccc(S(=O)(=O)N(C)c2nc3ccccc3nc2Cl)cc1 | inconclusive: 89.1 µM [inhibitor, single point] |  |
| C=CCn1c(C)cc(C(=O)COC(=O)COc2ccccc2C#N)c1C | inconclusive: 15.8 µM [inhibitor, partial curve, poor fit] |  |
| COc1cccc(N2CCN(Cc3nc(N)nc(N4CCCc5ccccc54)n3)CC2)c1 | inconclusive: 70.8 µM [inhibitor, partial curve] |  |
| CCOC(=O)c1c(NC(=O)c2ccc(Br)cc2)sc2c1CCCC2 | inconclusive: 28.2 µM [inhibitor, partial curve] |  |
| COc1ccc(OC(C)C(=O)Nc2cccc(OC)c2)cc1 (configuration not stated) |  | inactive: 69.1% |
| O=C(Oc1ccc(O)cc1)C12CC3CC(CC(C3)C1)C2 | inconclusive: 70.8 µM [inhibitor, single point] |  |
| COc1cccc(CN2CCN(C(=O)c3cccc(OC)c3)CC2)c1 | inconclusive: 17.8 µM [inhibitor, full curve, poor fit] |  |
| COc1cccc(N2CCc3c(C)nc4ccc(Cl)cc4c32)c1 |  | inactive: 94.2% |
| CCCc1nnc(SCc2ccc(OC)cc2)n1N | inconclusive: 14.1 µM [inhibitor, partial curve] |  |
| O=C1C(Cl)=C(Nc2ccc3cn[nH]c3c2)C(=O)c2ccccc21 | active: 15.8 µM |  |
| Nc1ccc(Oc2ccc(Cl)cc2)cc1 | inconclusive: 50.1 µM [inhibitor, partial curve, poor fit] |  |
| O=C(NCCc1ccc(Cl)cc1)C1=CC=CN2CCS(=O)(=O)N=C12 |  | inactive: 57.2% |
| Cc1nnc(N/N=C/c2ccccc2F)n1N |  | inactive: 37.7% |
| COc1cccc(CN2CCN(Cc3cccc4nonc34)CC2CCO)c1 (configuration not stated) | inconclusive: 25.1 µM [inhibitor, full curve] |  |
| O=C(Nc1cccc(-c2nc3ccccc3c(=O)o2)c1)c1ccccc1 | inconclusive: 35.5 µM [inhibitor, full curve] |  |
| Cc1cccc(OCC(=O)N/N=C\c2cccn2C)c1C |  | inactive: 1.58% |

| Structure (SMILES) | Potency | activity change, negative = inhibition |
| --- | --- | --- |
| NS(=O)(=O)c1ccc(CNC(=O)c2ccc(NS(=O)(=O)c3cccs3)cc2)cc1 |  | inactive: 35.6% |
| COc1ccc(-c2csc(NC(=O)c3ccccc3NS(=O)(=O)c3ccc(C)cc3)n2)cc1 | inconclusive: 50.1 µM [inhibitor, partial curve, poor fit] |  |
| O=C(NCc1cccnc1)c1cccc(S(=O)(=O)Nc2cccc(Cl)c2)c1 |  | inactive: 31.4% |
| Cc1ccc(C(=O)Nc2ccc(Cl)cn2)cc1 |  | inactive: 27.9% |
| CC(C)c1ccc(CNc2nc(-c3ccco3)nn2C(=O)c2ccc([N+](=O)[O-])cc2)cc1 | inconclusive: 14.1 µM [inhibitor, full curve] |  |
| O=C(Nc1ccc2c(c1)OCO2)c1cc(-c2ccncc2)nc2ccccc12 | inconclusive: 28.2 µM [inhibitor, full curve] |  |
| COc1ccc(N2CCN(C(C)C(=O)N3CCc4ccccc43)CC2)cc1 (configuration not stated) | inconclusive: 79.4 µM [inhibitor, partial curve] |  |
| O=C(O)c1ccccc1N/N=C/C1=C(N2CCOCC2)C(=C\c2ccccc2)/CC1 | inconclusive: 31.6 µM [inhibitor, partial curve, poor fit] |  |
| COc1ccc(C2=CC3=C(Br)C(=O)C(C)(OC(=O)C4CCCC4)C(=O)C3=CO2)cc1 (configuration not stated) | inconclusive: 50.1 µM [inhibitor, partial curve] |  |
| Nc1ccc(Cl)c(S(=O)(=O)Nc2ccccc2Cl)c1 | inconclusive: 89.1 µM [inhibitor, single point] |  |
| COc1ccc(-c2csc(Nc3ccc(S(=O)(=O)Nc4cc(OC)nc(OC)n4)cc3)n2)cc1 | inconclusive: 50.1 µM [inhibitor, partial curve] |  |
| O=C(Nc1ncccn1)c1cc(-c2cccc(Br)c2)nc2ccccc12 | inconclusive: 70.8 µM [inhibitor, single point] |  |
| O=C(Cn1c(=O)oc2cc(S(=O)(=O)N3CCCCCC3)ccc21)Nc1ccc(F)cc1F |  | inactive: 0.998% |
| Cc1ccc(-n2c(=O)c3ccc(C(=O)NCc4ccco4)cc3n(CC(=O)Nc3ccccc3C(F)(F)F)c2=O)cc1 |  | inactive: 15.1% |
| N#C/C(=C/C1=C(N2CCOCC2)C(=C/c2cccc([N+](=O)[O-])c2)/CC1)C(=O)Nc1ccccc1F | inconclusive: 3.98 µM [inhibitor, full curve] |  |
| Cc1cccc(C(=O)c2c(N)sc3c2CCC(C)C3)c1 (configuration not stated) | inconclusive: 31.6 µM [inhibitor, full curve] |  |
| S=c1[nH]ncn1-c1ccccn1 | inconclusive: 89.1 µM [inhibitor, single point] |  |
| COc1ccc(CNCc2cc3c(cc2[N+](=O)[O-])OCO3)cc1 | inconclusive: 39.8 µM [inhibitor, partial curve] |  |
| CS(=O)(=O)c1ccc(C(=O)OCC(=O)Nc2cc(C(F)(F)F)ccc2Cl)cc1[N+](=O)[O-] |  | inactive: 26.3% |
| CS(=O)(=O)c1ccc2nc(NC(=O)CCN3C(=O)c4ccccc4C3=O)sc2c1 | inconclusive: 50.1 µM [inhibitor, partial curve] |  |
| Cc1ccc(CN=c2c([N+](=O)[O-])nn(-c3cccc(Cl)c3)n2O)cc1 | inconclusive: 35.5 µM [inhibitor, partial curve] |  |
